The values that follow come from article PMC7337969.

No constants are given. Whether binding was seen depends on the method and setting. In cells and extracts the contact can be indirect. Some entries that bind do so weakly or less than the wild type. Tags and fused reporters may be left off the sequences shown.

Holding throughout (assay): co-IP; FLAG-tagged HSF2BP and GFP-tagged MEIOK21 (full length or truncations) co-transfected into HEK-293T cells, lysed after 48 hours, precipitated with GFP antibody; IgG as control
The target in assay [1] is T1, GFP-tagged MEIOK21(451-600) (mouse) (UniProt Q6DIA7).
T1 sequence: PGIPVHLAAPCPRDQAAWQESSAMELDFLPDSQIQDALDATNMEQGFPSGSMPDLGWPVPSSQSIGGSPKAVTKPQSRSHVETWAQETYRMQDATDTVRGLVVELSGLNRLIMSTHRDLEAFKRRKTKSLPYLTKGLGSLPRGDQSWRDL

The target in assay [2] is T2, GFP-tagged full length MEIOK21 (mouse) (UniProt Q6DIA7).
T2 sequence: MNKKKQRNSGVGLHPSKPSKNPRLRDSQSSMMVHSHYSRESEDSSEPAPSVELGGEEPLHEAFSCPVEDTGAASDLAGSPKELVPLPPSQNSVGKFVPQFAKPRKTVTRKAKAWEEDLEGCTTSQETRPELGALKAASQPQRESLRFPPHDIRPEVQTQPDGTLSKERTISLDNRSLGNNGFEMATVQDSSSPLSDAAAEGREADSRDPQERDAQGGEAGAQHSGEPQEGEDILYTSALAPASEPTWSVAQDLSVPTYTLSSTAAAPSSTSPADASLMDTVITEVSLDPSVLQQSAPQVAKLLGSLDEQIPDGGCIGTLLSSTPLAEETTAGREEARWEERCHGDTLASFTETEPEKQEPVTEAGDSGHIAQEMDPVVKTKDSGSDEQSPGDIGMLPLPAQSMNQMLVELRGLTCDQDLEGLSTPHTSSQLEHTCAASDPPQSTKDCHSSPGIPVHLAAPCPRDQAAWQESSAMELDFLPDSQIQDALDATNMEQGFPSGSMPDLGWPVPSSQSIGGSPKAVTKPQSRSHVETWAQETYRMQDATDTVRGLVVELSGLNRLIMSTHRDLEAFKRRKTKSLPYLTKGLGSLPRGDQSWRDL

The target in assay [3] is T3, GFP-tagged MEIOK21(301-600) (mouse) (UniProt Q6DIA7).
T3 sequence: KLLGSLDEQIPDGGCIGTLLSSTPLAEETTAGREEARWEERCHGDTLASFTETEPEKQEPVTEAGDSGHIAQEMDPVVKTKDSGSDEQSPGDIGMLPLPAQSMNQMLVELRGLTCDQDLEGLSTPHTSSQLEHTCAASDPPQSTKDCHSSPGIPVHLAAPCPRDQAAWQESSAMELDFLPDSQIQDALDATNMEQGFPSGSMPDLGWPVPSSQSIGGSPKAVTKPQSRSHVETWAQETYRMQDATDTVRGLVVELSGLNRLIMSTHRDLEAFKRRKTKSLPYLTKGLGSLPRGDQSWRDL

The target of assay [4] is T4, GFP-tagged MEIOK21(1-300) (mouse) (UniProt Q6DIA7).
T4 sequence: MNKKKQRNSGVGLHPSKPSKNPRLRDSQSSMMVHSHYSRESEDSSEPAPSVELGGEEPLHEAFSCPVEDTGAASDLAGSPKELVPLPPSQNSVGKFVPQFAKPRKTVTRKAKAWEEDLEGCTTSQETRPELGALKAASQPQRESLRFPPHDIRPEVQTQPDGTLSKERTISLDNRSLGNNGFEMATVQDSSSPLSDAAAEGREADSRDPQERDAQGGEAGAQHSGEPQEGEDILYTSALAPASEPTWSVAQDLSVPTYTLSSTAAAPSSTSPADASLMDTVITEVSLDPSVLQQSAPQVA

B1: FLAG-tagged HSF2BP (protein, UniProt Q9D4G2 1-338)
chain: MAATVGDGSGTEEACRNMESKEEFVKVRKKDLERLTTEVMQIRDFLPRILNGELLESFQKLKMVEKNLERKEQELEQLIMDREHFKARLETAQADSGREKKEKLALRQQLNEAKQQLLQQAEYCTQMGAVTCTLLWGVSSSEEVVKTILGGDKALKFFNITGQTMESFVKSLDGDVKEVDSDENQFVFALAGIVTNVAAIACGREFLVNSSRVLLDTMLQLLGDLKPGQCTKLKVLMLMSLYNVSINSKGLKYITESPGFIPLLWWLLSDPDAEVCLHTLRLIQSVVLEPDVFSKVASELQSSLPLQRILAMSKSRNSHLQSAAQELLEDLRALDCNV
As to B1, the binding result in assay [1] is on record as “binds”; in assay [2] it was “binds”; in assay [3] it was “binds”; in assay [4], “no binding”.
